Some of the results follow.
system: PfAP2-HC AP2 domain (GST-tagged); assay: gcPBM binding intensity (ln(normalized median fluorescence intensity)); higher = stronger DNA binding
In short: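 Binding intensity is defined as the maximum Masliner-normalised natural-log median intensity across replicate spots for either probe orientation. It was measured on an Agilent 4 × 180k array of primer-extended double-stranded 36-bp intergenic genomic probes and negative controls, to which GST-tagged P. falciparum DNA-binding domains made in E. coli were applied for 1 h in 1× PBS with 1% milk, 0.2 mg/ml BSA, 0.5% salmon testes DNA and 0.03% Triton X-100. Detection was by Alexa488 anti-GST antibody and scanning at 488 nm.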

Row | Sequence | gcPBM binding intensity (ln)
1 | AACGAACACTATTACACACATACATACATATGTATG [CACACA_site1859] | 10.1
2 | TATACATAAAAATGATGTACATATAATATATATATA [XGTACX_site3863] | 9.8
3 | TTATTATTATAAAATTGTACTTGGTATATTAACATA [XGTACX_site5829] | 9.53
4 | AATGTATTATGTCTTCGTACACATAAATAAATAAAT [XGTACX_site4004] | 9.58
5 | GGATTAATATATTTACCACACACCCATTTCGATTTT [CACACA_site9200] | 10.1
6 | ATCTTGAAGATTATTTGTACACAAAAGTTAAAATAT [XGTACX_site242] | 9.47
7 | ATATAAATATATTTTACACACAATGGAGAAAAAAAT [CACACA_site6450] | 10.2
8 | TATATAATTATTTATTGTACACTCAAATCGATAAGG [XGTACX_site3216] | 9.52
9 | TATTTATAAATATAAACACACAACATTCTATGCATA [CACACA_site3243] | 9.77
10 | TTTTTCATTTAACAGAAGGGAGATAAAAAAAAAAAA [TGCATGCA_negctrl_site261] | 9.03
11 | ATATTATTTTAAAGTACACACATATATTGATATATA [CACACA_site7153] | 9.8
12 | AATAATTATAAAAAATGTACAAAAAAAAAAAAAAAA [XGTACX_site3681] | 9.25
13 | GTATGTATGTATGTATGTACGTATGTATGTATATAT [XGTACX_site3369] | 9.8
14 | AGAATACATCTATGAACACACAGAGTTTTAAAAAAT [CACACA_site5514] | 9.86
15 | ACCTTTTGGATTATATGTACATATATATATATATAT [XGTACX_site2687] | 9.78
16 | ATTAAAAATAAGAAGAGTACATATAATATATATACA [XGTACX_site3092] | 9.65
17 | TTAAAAAGAAAGTTCACACACATATATATGACGGAA [CACACA_site2602] | 10.1
18 | AAAATAATATTTAATACACACATAATTATAATATAA [CACACA_site782] | 9.78
19 | ATTTTTAATTGAATCACACATTTCCTTTCTTTTGTG [CACACA_site4438] | 9.67

Row | Sequence | gcPBM binding intensity (ln)
20 | CATAAAATATAAAACACACACACATATATTTATATA [CACACA_site6247] | 10.5
21 | AAATAAAAGTTCACCTGTACACACATATATATATGT [XGTACX_site3513] | 10.2
22 | TTAACATAGATATATACACACCAATGATGGCATTTA [CACACA_site6840] | 9.65
23 | TATATATATATATATATACACACTATATAATTCAAA [CACACA_site1023] | 9.58
24 | TTTTTTTTTTTTTAGAGTACACACTTTTTTACATTT [XGTACX_site8159] | 9.53
25 | ATACTAAATATAAATTGTACTTTATTTATATTGAGA [XGTACX_site8699] | 9.48
26 | ATATATAATACTACAGTGCAATATATTATATTTGTT | 9.76
27 | TTCCTCTTAAAATATACACACTGATTTAAGAAAAAA [CACACA_site5770] | 9.33
28 | GCAAATCATGCTATGGTGCATATGTAAGATGAGCAT | 9.63
29 | TTGTGATTATTATATTGTACAATAAGTATTAAAGAA [XGTACX_site2753] | 9.7
30 | AACTGAGAAACCGAAGTGCAATATGTATATATACAT | 9.72
31 | ATATATAATATATATGCATGTGACATTAATAATATA [TGCATGCA_site880] | 9.69
32 | TAATTTAAAAATATAAATGTTTCACTTATATATTTT [TGCATGCA_negctrl_site399] | 9.48
33 | ATATGAAAGGTGTACACACGCACACCCAAAAAAATA [CACACA_site2911] | 9.99
34 | TTTTTTACGCATAACTTAATATGAGAATCCCTTTCT [GTGCAC_negctrl_site522] | 9.4
35 | CCACACTTAAAATACACACACACCAAAAAAAAAAAA [CACACA_site2709] | 11.3
36 | GGGAGGATAGTTCACAGTACCCAGTAACTCTACGGA [XGTACX_site2558] | 9.3
37 | ATTTATTGACTATTTACACACATATTTATTAGAATA [CACACA_site6863] | 9.87
38 | ATGATACATAAAGAATATAAAACATGAAATATAATA [CACACA_negctrl_site1461] | 9.79

Row | Sequence | gcPBM binding intensity (ln)
39 | GCCACACTTTTCTGCACACATAAAAAATATATAAAT [CACACA_site578] | 9.89
40 | CATAAGAGGAACTTTTGTACTTATATGTATATAGTA [XGTACX_site5836] | 9.4
41 | CTTTTATGAAACAGTGCACACATAAAAATATATACA [CACACA_site8981] | 9.74
42 | TATATCGTTATATAAACACACAATATGTTTTTTATA [CACACA_site7730] | 9.65
43 | TACACCCATGGACACACACACACGCATAAAAAAAAA [CACACA_site4933] | 10.7
44 | AAAAAAAAAAAAAAAACACACATTTGAAAGAAAGAA [CACACA_site3339] | 9.69
45 | ATTTTTATTTTCTTTACACACCACATAATTTTTTTT [CACACA_site6092] | 10.1
46 | ATGAACATTTATAAATGTACTCACATATATATATTT [XGTACX_site6692] | 9.65
47 | TTTATATTTATCCAAAGTACTTTTTAAAAACATACC [XGTACX_site4518] | 9.48
48 | TTTTTGTTTTTTTTTTGTACATATATATAAAAAATA [XGTACX_site1214] | 9.5
49 | TTTTTTTTAATATTTTACATTGTCTGTTAACAAATA [CACACA_negctrl_site599] | 9.57
50 | AGATATATATTTTATTGTACACATTAAAGTATAAAA [XGTACX_site7194] | 9.47
51 | AACATTTTTAGATTATATTATTAAATAAGTAACTGC [XGTACX_negctrl_site326] | 9.42
52 | AACACTTTAATTTATGCACACATATGGAACAACAGC [CACACA_site8241] | 9.97
53 | AAGTTTTTTATTTTTTGTACATAAAAAATAATAATT [XGTACX_site1755] | 9.42
54 | TATGTATTTATATATACACACTTCTGTGATACGAAA [CACACA_site5128] | 9.61
55 | AGTAAACGATGATGTTGTACAAAAAGGATAATTTAA [XGTACX_site6698] | 9.91
56 | TTTTTATTTTTTATGTAATTTAAATAATTATTCAAA [CACACA_negctrl_site1549] | 9.4
57 | CAATACTATTATTATAGTACGTATAAAATTATATAT [XGTACX_site4950] | 9.7
